Data: patent publication EP4471063A1 (Medilink Therapeutics (Suzhou) Co., Ltd., dated 2023)

Target: human Her3 on tumor cells (human, UniProt P21860 20-1342)
Assay: cell-based or functional assay

B1: Her3-ADC-07 (other)
heavy: EVQLVESGGGVVQPGRSLRLSCAASGFTFSTYGMHWVRQAPGKGLEWVAVIWYDVSHKYYADSVKGRFTISRDNSKNTLSLQMNSLRAEDTAVYYCARDWGDPDAFDIWGQGTMVTVSS[… human IgG1 constant region …]
light: [… about 100 residues …][… about 100 residues …]
modifications: drug-linker DL-04 attached via S atom of a cysteine freed by TCEP reduction; 0-1 per light chain, position not stated; drug-linker DL-04 attached via S atoms of cysteines freed by TCEP reduction of disulfide bonds; 0-3 per heavy chain, positions not given
In the case of B1, the “EC50 of killing activity against NCI-H358 tumor cells (CCK8, 120 h)” value is reported as 183 nM and the “EC50 of killing activity against PC-9 tumor cells (CCK8, 120 h)” value is reported as 49.3 nM.
